# Results taken from the supplement of paper PMC3334620.
# The full ranking holds about 33,000 sequences; the median of “E-score (-0.5 to 0.5)” is about -0.021, and the highest 2% start at about 0.32. This is one part of the list.
# Target: T1, Zap1 (UniProt P47043)
# T1 sequence: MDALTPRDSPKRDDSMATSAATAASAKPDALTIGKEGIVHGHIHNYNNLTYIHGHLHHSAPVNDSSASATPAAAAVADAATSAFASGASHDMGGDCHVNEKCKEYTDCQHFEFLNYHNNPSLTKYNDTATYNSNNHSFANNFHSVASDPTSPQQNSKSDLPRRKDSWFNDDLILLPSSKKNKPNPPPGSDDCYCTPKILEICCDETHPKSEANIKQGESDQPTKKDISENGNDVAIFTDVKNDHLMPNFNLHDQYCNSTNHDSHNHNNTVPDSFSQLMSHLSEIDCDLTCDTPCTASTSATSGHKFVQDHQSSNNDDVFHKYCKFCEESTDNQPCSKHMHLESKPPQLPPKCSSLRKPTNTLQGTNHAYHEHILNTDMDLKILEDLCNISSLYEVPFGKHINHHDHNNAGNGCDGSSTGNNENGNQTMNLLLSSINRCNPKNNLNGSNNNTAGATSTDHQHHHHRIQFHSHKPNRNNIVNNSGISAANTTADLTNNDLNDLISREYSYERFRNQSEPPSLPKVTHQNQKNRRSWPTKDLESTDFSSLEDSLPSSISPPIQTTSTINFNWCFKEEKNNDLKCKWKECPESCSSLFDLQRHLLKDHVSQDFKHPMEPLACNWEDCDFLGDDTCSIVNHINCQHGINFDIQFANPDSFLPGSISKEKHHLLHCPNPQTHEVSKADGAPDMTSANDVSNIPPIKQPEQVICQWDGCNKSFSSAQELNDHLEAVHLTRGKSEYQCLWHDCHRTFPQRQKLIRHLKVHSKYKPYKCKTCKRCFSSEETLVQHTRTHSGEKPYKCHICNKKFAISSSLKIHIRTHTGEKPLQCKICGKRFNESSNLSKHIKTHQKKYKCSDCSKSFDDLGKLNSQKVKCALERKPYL
# Assay: PBM E-score (8-mer binding enrichment) (E-score (-0.5 to 0.5)); higher = stronger / more preferred TF binding; most listed sequences are background and not binding sites
# Conditions: protein concentration: 200 nM; construct: GST-full length
# Outline: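 Yeast transcription factors, full-length or as DNA-binding domains, were expressed with a GST tag using PURExpress in vitro transcription/translation. At about 100-200 nM they were applied to universal all-10-mer Agilent arrays, double-stranded by primer extension on fresh or once-stripped slides. Fluorescent anti-GST detected bound protein, and masliner normalised the scans. E-scores for ungapped eight-base words, pooled with reverse complements, came from the Universal PBM Analysis Suite.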
row,Sequence,PBM E-score
1,ACACCGGC,-0.0775
2,AAGCAGTC,-0.132
3,TATCCTAA,0.0366
4,CCAGCTCC,-0.215
5,GAATTGCA,-0.0559
6,ATACCTAC,0.216
7,ACTCGAAC,-0.0744
8,GATGACCC,0.403
9,AGACTGCG,-0.225
10,TATTCTGA,0.022
11,CTATGGAG,-0.139
12,AAGTTTAC,0.178
13,AGTACGGC,-0.00578
14,GCTTGAGA,-0.139
15,CTAGACGA,-0.171
16,ATAGTTTA,0.0216
17,ACACCGGG,0.0916
18,AGACTGGG,-0.141
19,GATAACAA,0.171
20,GAAGACTA,-0.0505
21,GATGGCCC,-0.0404
22,GCTACTTA,-0.226
23,ACTAACGG,-0.158
24,ATGGCGTA,-0.0173
25,CATGGTGA,0.0149

row,Sequence,PBM E-score
1,GCGTCCCC,-0.249
2,CGCTCGAG,-0.0913
3,AGGGTGGC,0.293
4,GACTGAGA,-0.0802
5,CTACTCCA,-0.0348
6,ACTCGCCT,-0.0695
7,ACCGACCT,0.0803
8,CCCTAGTA,-0.00016
9,CTCCACGC,-0.241
10,GACTCTGC,-0.129
11,GGAATGTA,-0.0291
12,CTACCTAA,0.106
13,AGCTGGAC,-0.202
14,AAAACTAC,0.115
15,AACAGGAT,-0.0521
16,AAAAGGAA,0.119
17,CTTTGGCA,-0.316
18,GGGCCAAC,-0.194
19,CCAATGTC,0.0198
20,ACCGGACC,-0.0182
21,GGTCAAAA,0.25
22,CCCAGGGC,-0.18
23,CATGGCTC,-0.133
24,CATGTGAA,-0.0799
25,ACTCGTGC,-0.164

row,Sequence,PBM E-score
1,AGTCGGCG,-0.141
2,GAAGTTTA,0.00485
3,GAGGGATC,-0.141
4,ACCTTAGT,0.27
5,CCCAACGA,-0.0315
6,GACGACTC,-0.289
7,TAAGCAGA,-0.127
8,CCAACGCA,0.182
9,AGGACTCA,-0.163
10,AACCTGAC,0.195
11,AGACCTCA,0.0826
12,AATGTCCT,-0.161
13,ATGGCTCA,-0.121
14,ACCTGCGG,0.172
15,CGCATGCC,-0.0453
16,CACGATCA,0.162
17,AGGTACTC,0.261
18,AGCTGAAA,-0.0338
19,GTAGGCCA,0.064
20,AGATGCTC,-0.0951
21,CAGTGGCG,-0.132
22,ACGTGTTG,-0.208
23,CGTCCCAG,-0.1
24,CGACATAA,-0.0524
25,AGCTATAC,-0.00572

row,Sequence,PBM E-score
1,ACCGATGG,0.143
2,GAAGTTGC,-0.122
3,CTCGCAGC,-0.0472
4,GTTACTTA,0.19
5,AGTTTTAG,0.084
6,GCGCCCGA,-0.181
7,AAGACGCA,-0.128
8,TAGCGACA,0.0403
9,CACCAGAG,-0.189
10,AAATAAGG,0.0515
11,AGCTCCAC,-0.261
12,AGGAAGAC,-0.258
13,ACACGATG,-0.225
14,GGTATAAC,0.265
15,ACGCCTCA,-0.12
16,ATCGGCGC,-0.15
17,GCATTAAC,-0.00696
18,TCGGGGCA,-0.247
19,TCATCGGA,0.0515
20,GTGCTTAA,0.133
21,CCAGAAGG,0.198
22,ACATTTTC,0.0824
23,GACCTCCC,-0.141
24,ATCGTCAC,0.0385
25,CGCTAACC,0.312

row,Sequence,PBM E-score
1,TAGGATAA,0.0934
2,GGACATGA,-0.0621
3,ATCCTAAA,-0.00991
4,ACAACTAA,0.13
5,GCAAGTCA,0.0207
6,ACTGACAA,0.0776
7,ACCTAATA,0.18
8,GTGACATA,0.0357
9,CTCCAGAG,-0.135
10,CCTCCTAG,-0.189
11,AGGACTGG,-0.0435
12,ACCAAGGG,0.178
13,AATTCAAA,0.126
14,GGGTGTAA,0.0228
15,AGGGTGCC,0.206
16,GGTCGCGA,0.32
17,ATAGTCAA,0.0862
18,CACAAAGG,0.26
19,AGCAGACA,-0.173
20,ACGGACAT,0.078
21,CCCAGTCC,-0.0737
22,CCACAGCC,-0.17
23,CCCACTGA,-0.0683
24,CACGGAAA,-0.00494
25,ATCACAAT,-0.0122

row,Sequence,PBM E-score
1,GAGTCCGC,-0.0903
2,TAGATGGA,-0.292
3,GGACGCAC,-0.0516
4,GTAGAATA,0.0509
5,TCCACGCA,0.0249
6,ACGTGACG,-0.122
7,CTAGCAAC,-0.0149
8,CAGCTCGG,-0.188
9,ACACGAAT,0.0376
10,GTATCGGA,-0.0886
11,AAGCCAGA,-0.16
12,AACCTAAT,0.204
13,ATTCCGCG,0.0798
14,ACTACCGA,-0.166
15,CTGCCTGA,-0.0301
16,AATATGAA,0.0666
17,ATCGTTGA,0.0303
18,AGCATTAG,-0.0181
19,CACCTTAG,0.245
20,ATCGTCAA,-0.0259
21,CTCTCTGC,-0.139
22,ACCCACGT,0.0775
23,AAACGGTA,0.228
24,ACATTTAT,-0.0887
25,GCTCTTTA,-0.113

row,Sequence,PBM E-score
1,ACGGACTC,-0.272
2,GCAACCCC,0.342
3,ACTGAGAA,-0.0474
4,ATGACGAG,-0.244
5,ATAAATGG,0.107
6,CGGGATTA,-0.0545
7,GAATAGTA,0.159
8,CGTATCCA,-0.133
9,AGTAAATC,0.106
10,GGATAAGA,-0.0507
11,AACACGCC,-0.175
12,AAGATTGA,-0.0233
13,GAAATGTC,-0.295
14,CACTCCCG,-0.298
15,CGGACAAG,-0.141
16,CTAAGAAG,0.137
17,CAAACCCA,0.2
18,GAGCGACC,-0.0743
19,ACATGGTA,0.111
20,AATTATCC,0.0783
21,ATCAAAGG,0.0999
22,ATGAGACC,0.0567
